# Hit rate of the full screen: of about 350,000 compounds, about 9,900 (2.8%) were called active. The shares of active, inactive and inconclusive entries below differ from those in the screen. The call rests on the fitted dose curve; in most records, active means well fitted activation curve with a large enough effect; inconclusive means small, poorly fitted or top-dose-only effect; inactive means no such curve, though single readings can be large or run the other way. No potency is given beside an inconclusive call; the fits are too rough.
# Assay: A quantitative high throughput screen for small molecules that induce DNA re-replication in MCF 10a normal breast cells. Further: nearly all actives have a fitted effect of over 50% in size. On activity, positive = re-replication: % of control where 0% means no effect.
# Conditions: MCF 10A DNA re-replication, Hoechst nuclear intensity, 48 h; activity, positive = re-replication: at 46.1 µM (top of the series)
# Potency means the concentration at half of the fitted maximal effect; tags describe the fitted curve by direction and shape.
SMILES,"activity, positive = re-replication",Potency
CCN(C(=O)COC(=O)C(c1ccccc1)c1ccccc1)c1c(N)n(Cc2ccccc2)c(=O)[nH]c1=O,inactive: -11.3%,
CC1Cc2cc(S(=O)(=O)N3CCN(c4cccc(Cl)c4)CC3)ccc2N1C(=O)C1CC1 (stereo unspecified),,"inconclusive [activator, partial curve, poor fit]"
O=C1C(=O)N(CNc2ccccn2)c2ccccc21,,active: 7.31 µM
N#Cc1ccc(-c2csc(NC(=O)/C=C/c3cccs3)n2)cc1,,"inconclusive [activator, single point]"
COc1ccc(C2=Nn3c(nnc3-c3ccccc3F)SC2)cc1OC1CCCC1,,"inconclusive [activator, partial curve, poor fit]"
COc1cc2c(C#CCCCO)c(-c3ccc(C#N)cc3)oc(=O)c2cc1OC,,active: 6.51 µM
Cc1nc(-c2ccc(F)cc2)c(CC(=O)N(C)CC(=O)Nc2ccc(Cl)c(C(F)(F)F)c2)s1,,"inconclusive [activator, single point]"
COC(=O)[C@@H]1C[C@@]2(O)[C@H](O)[C@H](O)[C@H](O)C[C@H]2N1Cc1ccc(-c2ccccc2)cc1,inactive: -0.428%,
COC(=O)C1=C(Nc2ccc(C)cc2)C=C(C)C(C(=O)OC)C1c1ccc(OC)cc1 (stereo unspecified),,"inconclusive [activator, single point]"
CCCn1c(Sc2nc3c(c(=O)[nH]c(=O)n3C)n2CCC)nc2c1c(=O)[nH]c(=O)n2C,,"inconclusive [activator, partial curve, poor fit]"
O=C1OCCN1C(=O)[C@H]1[C@H](c2ccc(Cl)cc2)C(c2ccc(F)cc2)=NN1c1ccc(Br)cc1,,"inconclusive [activator, full curve, poor fit]"
CCCCn1c(O)c(/C=C/C=C/C=Nc2ccccc2)sc1=S,inactive: 8.28%,
CC1CCN(Cc2c(C(=O)N/N=C/c3ccc(C(F)(F)F)cc3)nnn2-c2nonc2N)CC1,,"inconclusive [activator, single point]"
COc1ccc([C@H]2CC(=O)C=C(c3cccc(C(F)(F)F)c3)C2)cc1,,"inconclusive [activator, single point]"
Cc1ccc(Nc2nnc(SCC(=O)Nc3ncc(S(=O)(=O)c4ccc([N+](=O)[O-])cc4)s3)s2)cc1,,"inconclusive [activator, full curve]"
COC(=O)c1cc(C(=O)N2CCN(c3cccc(Cl)c3)CC2)cc([N+](=O)[O-])c1,,"inconclusive [activator, full curve, poor fit]"
COC(=O)Nc1nc(C)c(C(=O)c2ccccc2)s1,,active: 9.2 µM
Cc1ccnc(NC(=O)C2CCN(S(=O)(=O)c3ccc4c(c3)CC(C)N4C(=O)C3CCC3)CC2)c1 (stereo unspecified),,"inconclusive [activator, single point]"
Cc1cc(C)c(C(=O)/C=C/c2ccc3c(c2)OCO3)c(=O)[nH]1,,"inconclusive [activator, single point]"
CCC(NC(=O)CSc1nnnn1C1CC1)c1ccc(Br)cc1 (stereo unspecified),,"inconclusive [activator, single point]"
Cc1[nH]c(C)c(S(=O)(=O)NCC(C)c2ccccc2)c1C(=O)N1CCCCC1 (stereo unspecified),inactive: -1.17%,
COc1ccc(CNC(=S)Nc2ccc(F)c(Cl)c2)cc1OC,inactive: 5.74%,

SMILES,"activity, positive = re-replication",Potency
CCC/C(=C1/c2ccccc2C(=O)N1c1ccccc1)c1ccc2c(c1)OCCO2,,"inconclusive [activator, single point]"
NS(=O)(=O)c1ccc(O)c(N2C(=O)c3cccc4c(C(=O)O)ccc(c34)C2=O)c1,,"inconclusive [activator, single point]"
O=C(CCc1ccccc1)N/N=C/c1cc(Br)ccc1O,,"inconclusive [activator, single point]"
Cc1cc(C)c2c(c1)/C(=N/NC(=O)c1cc(C)oc1C)CCC2,,"inconclusive [activator, full curve]"
Cc1cc(Br)ccc1NC(=O)C1CCCO1 (stereo unspecified),,"inconclusive [activator, single point]"
Cc1noc(C)c1COc1ccc(C(=O)N2CCN(S(=O)(=O)c3ccc(F)cc3)CC2)cc1,inactive: 1.09%,
O=S(=O)(Nc1ccc2c(c1)OCO2)c1cccc(Br)c1,inactive: 10.5%,
O=C(NCc1cc2ccccc2[nH]1)c1ccccc1F,inactive: -7.11%,
CN1CCN(NC(=O)c2cc(-c3ccc(Br)s3)nc3ccccc23)CC1,,active: 23.1 µM
Cc1ccc(N/N=C/c2ccc(N3CCOCC3)cc2)cc1C,,"inconclusive [activator, single point]"
C(#Cc1ccccc1)CN1CCN(c2ccccn2)CC1,,"inconclusive [activator, partial curve, poor fit]"
Cc1ccc(Nc2c(-c3ccccn3)nc3cccc(C)n23)cc1,,"inconclusive [activator, partial curve, poor fit]"
Cc1cnn(C(=S)NCc2ccc(Cl)cc2)c1,inactive: -0.384%,
COc1ccc(CCN2CCCC(CN(C)C(=O)c3cc(C)oc3C)C2)cc1 (stereo unspecified),inactive: 4.91%,
NCCCn1c(C(=O)c2ccc(Cl)cc2)c2ccc([N+](=O)[O-])cc2[n+]1[O-],,"inconclusive [activator, single point]"
CCN(CC(=O)NCc1ccc(F)cc1)C(=O)/C=C/c1ccc(OC)c(S(=O)(=O)NC(C)C)c1,,active: 1.84 µM
Nc1c(Br)cc2oc(-c3ccccc3)nc2c1Br,,"inconclusive [activator, partial curve, poor fit]"
Cc1ccccc1N(C(=O)c1snc(C(N)=O)c1N)C(C(=O)NCc1ccccc1)c1ccc(O)cc1 (stereo unspecified),,"inconclusive [activator, single point]"
Cc1cc(C)c(C)c(C(=O)CSc2nnc(-c3ccc4[nH]c(C)c(C)c4c3)o2)c1C,,active: 13 µM
CC1(C)NC(=O)N(CCCCOc2ccc3ccccc3c2Cl)C1=O,,"inconclusive [activator, partial curve, poor fit]"
CCOC(=O)c1cc(-c2ccccc2)n(Cc2cc(CC)no2)n1,,"inconclusive [activator, full curve, poor fit]"
CC(C)NC(=S)NC(=O)c1ccc(-c2ccccc2)cc1,,"inconclusive [activator, partial curve]"

SMILES,"activity, positive = re-replication",Potency
CCOc1nc2ccccc2nc1NS(=O)(=O)c1ccc(Cl)cc1,inactive: 11.2%,
Cc1cc(N2CCN(C(=O)c3ccco3)CC2)c2ccccc2n1,inactive: 0.626%,
Clc1cccc(C2=NOC(c3nnc(-c4ccccc4)o3)C2)c1 (stereo unspecified),,"inconclusive [activator, partial curve, poor fit]"
CCCOc1ccc(OCCOCCNCc2ccccc2)cc1,,"inconclusive [activator, partial curve, poor fit]"
COC(=O)[C@]1(C)N[C@H](CN(C)C(=O)Nc2ccccc2)[C@@H]2C(=O)N(C)C(=O)[C@@H]21,,"inconclusive [activator, full curve, poor fit]"
CCC(=O)N(Cc1ccco1)c1nc(-c2ccc(OC)cc2)cs1,,"inconclusive [activator, partial curve, poor fit]"
Cc1nc(C)c(-c2csc(Nc3ccc(C(=O)O)c(O)c3)n2)s1,inactive: 8.45%,
Cc1ccccc1OCC(=O)Nc1nnc(-c2ccncc2)s1,inactive: 8.04%,
O=C1CC(c2cccc(Cl)c2)CC(O)=C1C=NC1CCCC1 (stereo unspecified),,"inconclusive [activator, single point]"
Cc1cccc(N2CCN(Cc3c(C)n(C)n(-c4ccccc4)c3=O)CC2)c1C,,"inconclusive [activator, partial curve, poor fit]"
Cc1nc(-c2ccccn2)sc1C(=O)Nc1ccc(F)cc1F,inactive: -1.53%,
COc1ccccc1C1CCCN1Cc1nc(-c2ccc(C)s2)oc1C (stereo unspecified),,"inconclusive [activator, full curve]"
Cc1nc2ccccc2c(=O)n1/N=C/c1c(O)ccc2oc3c(c12)CCCC3,inactive: 1.2%,
Clc1ccc(C2=Nn3c(nnc3-c3cc(-c4ccccc4)n[nH]3)SC2)cc1,,"inconclusive [activator, partial curve, poor fit]"
O=C(NC(=S)N(CCO)Cc1ccccc1)c1ccc(S(=O)(=O)N2CCCC2)cc1,,"inconclusive [activator, single point]"
CCOC(=O)CN1C(=O)S/C(=C\c2ccc3c(c2)OCO3)C1=O,inactive: 8.47%,
CC(=O)N1N=C2/C(=C/c3ccccc3)CCCC2C1c1ccccc1 (stereo unspecified),,"inconclusive [activator, partial curve]"
CC(C)[C@H](CN1CCC[C@H]1CN1C(N)=NC[C@@H]1Cc1ccccc1)N1C[C@@H](Cc2ccccc2)N(CCc2ccc(Cl)c(Cl)c2)C1=N,,"inconclusive [activator, single point]"
CC1Sc2ccc(S(=O)(=O)N3CCC(C(=O)Nc4ccc(Cl)cc4)CC3)cc2NC1=O (stereo unspecified),,"inconclusive [activator, partial curve, poor fit]"
Cc1ccc(N(Cc2ccccc2F)S(C)(=O)=O)cc1C,inactive: 13%,
CCCc1nc(SCC(=O)N2CCC(Cc3ccccc3)CC2)c2c(=O)n(C)c(=O)n(C)c2n1,,"inconclusive [activator, partial curve, poor fit]"
CCCCn1c(N2CCC(Cc3ccccc3)CC2)nc2c1c(=O)[nH]c(=O)n2C,,"inconclusive [activator, single point]"

# — PubChem BioAssay AID624296 (National Center for Advancing Translational Sciences (NCATS), 2012)
